# Measured values published in the supplement of paper PMC3334620.
# Whole data set: some 33,000 sequences, median “E-score (-0.5 to 0.5)” near -0.032, cut for the highest 2% near 0.36. Some of the results follow.
# Molecular target: T1, Sko1 (UniProt Q02100)
# T1 sequence: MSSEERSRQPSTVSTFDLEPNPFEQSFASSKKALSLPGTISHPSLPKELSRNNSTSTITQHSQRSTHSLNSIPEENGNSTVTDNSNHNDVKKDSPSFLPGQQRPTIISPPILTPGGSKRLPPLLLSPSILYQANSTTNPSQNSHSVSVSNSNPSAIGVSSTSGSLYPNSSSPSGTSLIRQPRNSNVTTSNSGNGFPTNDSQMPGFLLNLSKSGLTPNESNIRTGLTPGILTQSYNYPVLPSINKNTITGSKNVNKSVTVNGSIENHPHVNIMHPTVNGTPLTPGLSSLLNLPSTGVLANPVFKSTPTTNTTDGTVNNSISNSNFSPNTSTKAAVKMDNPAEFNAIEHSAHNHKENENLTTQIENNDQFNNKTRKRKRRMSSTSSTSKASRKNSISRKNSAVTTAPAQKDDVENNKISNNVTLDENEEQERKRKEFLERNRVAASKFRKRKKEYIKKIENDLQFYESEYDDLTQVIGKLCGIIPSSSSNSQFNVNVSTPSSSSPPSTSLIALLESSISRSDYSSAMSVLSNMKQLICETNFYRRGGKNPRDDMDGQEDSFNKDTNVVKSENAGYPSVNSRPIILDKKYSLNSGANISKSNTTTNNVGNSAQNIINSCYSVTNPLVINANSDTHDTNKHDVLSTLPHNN
# Assay: PBM E-score (8-mer binding enrichment) (E-score (-0.5 to 0.5)); higher = stronger / more preferred TF binding; most listed sequences are background and not binding sites
# Conditions: protein concentration: 200 nM; construct: GST-full length
# Method in brief: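 Each ungapped eight-base word and its reverse complement, pooled, received an E-score from the Universal PBM Analysis Suite. Underlying scans, normalised with masliner, recorded fluorescent anti-GST bound to GST-tagged yeast transcription factors. These were applied at about 100-200 nM to universal all-10-mer Agilent arrays double-stranded by primer extension.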
row,Sequence,PBM E-score
1,AGGAAACT,-0.179
2,CGGGCGGA,-0.312
3,AAAGATAA,0.309
4,GGCCTTAC,-0.0707
5,CAGGACCG,-0.217
6,CTACAGGA,-0.0238
7,AAATGATC,0.0628
8,CGGGCTCC,-0.343
9,CGTGTGTC,0.308
10,ATGCTTCG,0.0182
11,GCCAATTA,0.0275
12,ACGTTTAG,0.355
13,ACAGGATC,-0.228
14,CTCACGTC,0.278
15,AAAATATG,0.131
16,GAAACGAA,0.115
17,CGGGACTA,-0.306
18,CCCAATTA,-0.00491
19,CCACATGA,-0.0316
20,GAAGTGAC,0.215
21,CGAAGGGC,-0.104
22,CGACCTCG,-0.147
23,ACAATAAT,0.136
24,TCACGAGA,0.0525
25,CACTCCTG,-0.229

row,Sequence,PBM E-score
1,ACTGAAGC,0.061
2,GCACCAGA,-0.0638
3,CCGCTTTC,-0.206
4,AGCCGCAA,-0.318
5,GGGCTTCA,-0.264
6,ATAGTCAG,0.0782
7,CAAACGCG,0.191
8,ATTACCTC,0.135
9,AACGCGAC,0.0562
10,GCGTTAGA,0.0686
11,AATTAACG,0.224
12,ATGCAAAG,0.0207
13,AATGCACT,0.0553
14,TGCCGACA,-0.0916
15,TACAAGCA,0.0786
16,CCATTGTA,0.119
17,ACGTATAT,0.453
18,CCCGAAAC,-0.00638
19,ATCTGGTC,-0.136
20,GACAAACA,0.107
21,TGATGCAA,0.239
22,ACCCGGAA,-0.115
23,CAAAATTC,0.176
24,CATCCCCG,-0.21
25,TATTTAGA,0.124

row,Sequence,PBM E-score
1,GTCTAGAA,0.0588
2,CTGAAGGC,-0.0443
3,ATGATAGC,0.191
4,AAGAATTA,0.217
5,GAAAGTCA,0.0579
6,AAAGCCCA,0.0234
7,GCTTACGA,0.238
8,GTAATAGA,0.212
9,ATTCTAAC,-0.0194
10,AAAGAAAA,0.187
11,CGTCTCAA,0.198
12,CCCCTTAC,-0.11
13,AATTTACA,0.206
14,AGTATACG,0.267
15,ATAACATC,0.263
16,ACTACGCC,-0.00632
17,CAATAGCA,-0.132
18,GGAAAGAA,0.0108
19,ATGGTATA,0.139
20,ACTGGGTC,-0.191
21,TGGCGCCA,0.0245
22,CCTGGGAC,-0.161
23,TGCGCCAA,-0.0647
24,CGGGGTCA,-0.241
25,AACCTCTG,-0.248

row,Sequence,PBM E-score
1,CCCTCCCA,-0.0549
2,AACAAGTA,0.0824
3,AAGATCCA,-0.253
4,CTTTCTTA,0.171
5,GTTCAATA,0.097
6,CTTCCGGA,-0.157
7,GCGTAATA,0.421
8,AGTACGCG,0.236
9,GACTCGGC,-0.355
10,TATCCCCA,-0.0445
11,GAATAGTC,-0.0748
12,CACTCCAA,-0.0776
13,CAAAAGTC,-0.111
14,ATAGCTCC,-0.0145
15,ATGGGAAA,-0.211
16,ACCATAGT,-0.189
17,GTGTCTTA,0.133
18,GCTATACA,0.0971
19,CGCCATCC,-0.00253
20,GTAAACAA,0.27
21,AACGATGC,-0.0786
22,CTCAATGC,-0.0345
23,AGTTTCAA,-0.0302
24,ATGTTGAA,0.0028
25,AAACGAGT,-0.0854

row,Sequence,PBM E-score
1,AGCTCCTC,0.00546
2,CCGTGCCC,-0.355
3,TCCACGAA,0.212
4,CCCCACGA,-0.128
5,CATGAGGA,-0.0343
6,GACATTAA,0.158
7,CGACTTGC,-0.0556
8,TACAGCTA,-0.0853
9,ACGCAAAT,0.322
10,CGTGAAAC,0.203
11,ACAATGAT,0.246
12,GTGAGGAA,-0.117
13,TCGGGCAA,-0.0812
14,GTTGCGAA,0.222
15,AGACAGCG,-0.238
16,GTCGGTAA,-0.0021
17,CGCACGGC,0.0215
18,ATATAAAC,0.279
19,AGTCGGCC,-0.233
20,GGGTTTAA,-0.144
21,CTTACCAC,-0.0202
22,GAGGAATC,-0.152
23,AATACAAC,0.0837
24,AATAACCA,0.168
25,ATGATTAC,0.317

row,Sequence,PBM E-score
1,AGCCAGTA,-0.322
2,AAATAAAA,0.163
3,ACATTCAG,-0.188
4,TAGATATA,0.17
5,AAGCACTA,-0.0212
6,TATTGGCA,-0.0987
7,CACTAGGA,-0.0975
8,GCTCCTTA,-0.222
9,AACTACGA,0.198
10,TCGCCCCA,-0.0387
11,CCACTACC,-0.214
12,CCTCCGAC,-0.176
13,GGAGCGCC,-0.447
14,CTAACACA,0.0923
15,CCCGAGCC,-0.235
16,ATGTTAGA,0.085
17,CTATTATA,0.0584
18,AACAGGAA,0.0594
19,CATCTGTC,-0.164
20,CCCAAATC,-0.147
21,CCAGTCCA,-0.429
22,ATCACTCG,0.0477
23,CCAGGATC,-0.228
24,GTTTTAGA,0.156
25,CCTAAAGG,-0.262

row,Sequence,PBM E-score
1,AGCTGCAG,-0.0895
2,AGCAGGTC,-0.164
3,AGACTGCA,-0.234
4,AGTAAACG,0.0954
5,AGATGCCT,-0.0581
6,CAAATCAC,0.0593
7,CGATGAAA,0.134
8,CATATGGG,-0.0901
9,CCTCGGAC,-0.313
10,ACTCGACG,0.177
11,GCCTCCGC,-0.25
12,GTCGCACA,-0.0203
13,GCGCCAAA,-0.0722
14,CCGATTAA,-0.0807
15,GCCGTCCC,-0.0843
16,AATACTTC,0.109
17,CGTAACCC,0.289
18,CATTGTCC,-0.124
19,ACATCGTC,0.204
20,CGGTGCAG,-0.165
21,ACCTCTAC,0.107
22,GGACCCCA,-0.18
23,CAACTTTC,0.106
24,GAGAGGTA,-0.172
25,GTTAACAA,0.0704

row,Sequence,PBM E-score
1,CTCTTTGC,-0.136
2,AACAGTTC,0.0516
3,TATCTGAA,0.00502
4,CTCGACCC,-0.201
5,AAGACGGA,-0.0952
6,GAAGAGAA,-0.0172
7,AATTTCGA,0.155
8,ATAGGAGC,-0.102
9,CTAGACAC,-0.0241
10,GTAGATTA,0.269
11,AAAAACCG,-0.0151
12,TGCAGGAA,0.0526
13,CCTAATTC,0.0452
14,ATAGGCTA,-0.0866
15,CACCTCCA,-0.0533
16,CACGTGCG,0.353
17,TAACAACA,0.125
18,ATTAGCCG,-0.0929
19,CTTGTTGC,0.128
20,ACCATAGC,-0.261
21,ACACGTTA,0.318
22,AAAAATTC,0.0675
23,AAAAGCAC,-0.151
24,CATGGGTA,-0.0852
25,ATAATCAG,0.148

row,Sequence,PBM E-score
1,CGTATGAC,0.445
2,GTCTGGTA,0.0221
3,GAGGACCC,-0.302
4,GATGAAGC,-0.198
5,GGCTCGAA,-0.071
6,TCTACCCA,-0.0345
7,AAGCCTGC,-0.117
8,CACGTAAG,0.448
9,CCGCTGTC,-0.153
10,AAATTTGC,0.0217
11,AAATACTA,0.199
12,ATTGACAA,0.0901
13,TATACCGA,0.00019
14,CCAGCAAA,-0.0829
15,CAATAGGG,-0.189
16,ACCTAGCG,-0.0355
17,AGGGGCGG,-0.284
18,ATAGCTGG,-0.121
19,AAACCCAC,0.0716
